{"source": "PubChem BioAssay AID1347417", "about": "(National Center for Advancing Translational Sciences (NCATS), 2020)", "note": "The whole screen tested about 120,000 compounds, of which about 5,300 (4.4%) were called active. The inconclusive results got no clear call from the source; some entries with a clear call stand among them for comparison. Calls follow the shape of the dose curve; as a rule, active = well fitted inhibition curve with a large enough effect; inconclusive = small, poorly fitted or top-dose-only effect; inactive = no such curve, though single readings can be large or run the other way. Potencies of inconclusive entries are doubtful fits and often do not repeat. Potency is read from the fitted curve at half-maximal effect; tags tell the direction and shape of the fitted curve.", "data": [{"assay": "qHTS Primary assay for Inhibitors of Plasmodium falciparum Dd2 growth in vitro; also: nearly all actives have a fitted effect of over 65% in size", "details": "P. falciparum Dd2 growth, SYBR Green, 72 h; series mostly up to 28.9 µM", "summary_of_the_method": "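Readout: SYBR Green fluorescence, 485 nm excitation, 535 nm emission, after ~16 h lysis at 37C. Before that, Dd2-infected red cells (2.5% hematocrit) grew 72 h with compound, 29 uM top final concentration.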", "values": [{"smiles": "CS(=O)(=O)c1ccc(O[C@H]2COCCN(Cc3ccc(-c4ccccc4)cc3)C2)cc1", "Potency": "inactive"}, {"smiles": "O=C(c1cc(-c2ccncc2)n[nH]1)N1CCC2(CC1)Nc1ccccc1NC2=O", "Potency": "inconclusive: 12.6 µM [inhibitor, single point]"}, {"smiles": "Cc1cn(CC(=O)N2CCN(c3cccc(Cl)c3)C(=O)C2)c(=O)[nH]c1=O", "Potency": "inactive"}, {"smiles": "CC1=C[C@@H](CNC(=O)COCC(=O)O)[C@H](C(C)C)C[C@H]1Cc1nc2ccccc2n1C", "Potency": "inconclusive: 12.6 µM [inhibitor, single point]"}, {"smiles": "c1cc(-c2cc(-c3ccncc3)c3cncn3c2)c2[nH]ccc2c1", "Potency": "inconclusive: 10 µM [inhibitor, partial curve, poor fit]"}, {"smiles": "COc1nccc(N2CCC(CC(=O)N(C)CCCc3c(C)nn(C)c3C)CC2)n1", "Potency": "inactive"}, {"smiles": "COCCOC1CCOC2(CCN(C(=O)NCCc3ccccc3)CC2)C1", "note": "(stereo not drawn)", "Potency": "inconclusive: 10 µM [inhibitor, partial curve, poor fit]"}, {"smiles": "CCc1ccc(CNC(=O)c2cnc3sc(N4CCCCCC4)nn3c2=O)cc1", "Potency": "inactive"}, {"smiles": "CCOc1ccc(C(=O)Nc2ccc3nc(SCC(=O)N4CCCC4)sc3c2)cc1", "Potency": "inconclusive: 11.2 µM [inhibitor, single point]"}, {"smiles": "CC(C)CN1C(=O)c2cccn2CC1C(=O)NCCCN1CCCC1=O", "note": "(stereo not drawn)", "Potency": "inactive"}, {"smiles": "CCCOc1ccc(CN2CCC(C)(c3noc(C4CCOCC4)n3)CC2)cc1", "Potency": "inconclusive: 11.2 µM [inhibitor, single point]"}, {"smiles": "CCn1cnc2cc(NCc3ccc(N(C)C)cc3)ccc21", "Potency": "inconclusive: 20 µM [inhibitor, single point]"}, {"smiles": "O=C(C[C@@H]1CCNC[C@@H]1Cc1cc(CN2CCCCC2)on1)N1CCN(c2ccccc2)CC1", "Potency": "inconclusive: 14.1 µM [inhibitor, partial curve, poor fit]"}, {"smiles": "CC(C)c1ccc(NC(=O)CN(C)S(=O)(=O)c2ccc3c(c2)n(C)c(=O)c(=O)n3C)cc1", "Potency": "inconclusive: 5.62 µM [inhibitor, partial curve]"}, {"smiles": "Cc1ccc(-c2cn3c(n2)N(C(=O)c2cnccn2)CCC3)cc1", "Potency": "inconclusive: 5.62 µM [inhibitor, single point]"}, {"smiles": "COc1ccc(-n2nnnc2N2CCN(C(=O)Nc3ccc(C)c(F)c3)CC2)cc1C", "Potency": "inconclusive: 8.91 µM [inhibitor, partial curve]"}, {"smiles": "CCOC(=O)c1nn(Cc2ccccc2)c2c1CN(C(=O)CC1C(=O)Nc3ccc(OC)cc31)CC2", "note": "(stereo not drawn)", "Potency": "inconclusive: 20 µM [inhibitor, single point]"}, {"smiles": "C[S+](=O)([O-])c1ccc(-c2nc(C(=O)NCc3cccnc3)n3ccccc23)cc1", "Potency": "inactive"}, {"smiles": "O=c1c2ccccc2nc(-c2ccc(Cl)cc2)n1CCCCOc1ccc(F)cc1", "Potency": "inconclusive: 10 µM [inhibitor, single point]"}, {"smiles": "CCc1cc2c(-c3ccccc3)cc(=O)oc2c2c1OCN(Cc1ccc(C)cc1)C2", "Potency": "active: 2.24 µM"}, {"smiles": "Cc1ncc2c(c1CNC(=O)c1ccc3c(c1)OCO3)CCN(C(=O)CC1NC(=O)c3ccccc31)C2", "note": "(stereo not drawn)", "Potency": "inactive"}, {"smiles": "N#Cc1cccc(CN2CCOC[C@H]2c2ncc(-c3ccccc3)[nH]2)c1", "Potency": "inconclusive: 11.2 µM [inhibitor, partial curve, poor fit]"}, {"smiles": "COc1ccccc1NC(=O)C1=C(C)Nc2nc(SCc3ccccc3)nn2C1c1cccs1", "note": "(stereo not drawn)", "Potency": "inconclusive: 11.2 µM [inhibitor, partial curve, poor fit]"}, {"smiles": "Cn1cc(C(=O)N2CCN(c3ccccc3)CC2)c(=O)c2cc(S(=O)(=O)N3CCCC3)ccc21", "Potency": "active: 1.58 µM"}, {"smiles": "COc1cccc(CNC(=O)[C@@H]2C[C@@H](O)CN2C2CCN(C(=O)CCCc3ccccc3)CC2)c1", "Potency": "inactive"}, {"smiles": "Cc1nc(-c2ccc(OC3CCN(C(=O)NCC(C)C)C3)cc2)no1", "note": "(stereo not drawn)", "outcome": "inactive [at 5.79 µM]"}, {"smiles": "CC(=O)Nc1ccc(C(=O)N2CCC3(CC2)N=C(c2ccc(Br)cc2)NO3)cc1", "Potency": "inconclusive: 1.41 µM [inhibitor, single point]"}, {"smiles": "Cc1ccccc1C(=O)N1CC2(Cc3ccccc3C(=O)N2)C1", "Potency": "inactive"}, {"smiles": "COc1ccc(-c2noc(CSc3nnc(-c4ccncc4)n3-c3ccc(OC)cc3)n2)cc1", "Potency": "inconclusive: 17.8 µM [inhibitor, single point]"}, {"smiles": "COc1ccc(OC)c(CNC(=O)C2(C)CCCCC(=O)N2)c1", "note": "(stereo not drawn)", "Potency": "inconclusive: 7.94 µM [inhibitor, partial curve, poor fit]"}, {"smiles": "COc1ccc(-c2cn3c(n2)CO[C@@H](CNCc2ccc(OC(F)(F)F)cc2)C3)cc1", "Potency": "inconclusive: 31.6 µM [inhibitor, partial curve, poor fit]"}, {"smiles": "CCOc1ccc(CN2C(=O)c3ccccc3Sc3ccc(C(=O)NC4CCC(C)CC4)cc32)cc1", "note": "(stereo not drawn)", "Potency": "active: 11.2 µM"}, {"smiles": "Cn1c(C(=O)N2CCC3(CCNC(=O)CC3)CC2)cc2c(Cl)cccc21", "Potency": "inactive"}, {"smiles": "Cc1cc(C)n(CCC(=O)NCC23CCC=C2N(CC2CC2)C(=O)CC3)n1", "note": "(stereo not drawn)", "Potency": "inactive"}, {"smiles": "Cn1cc(CN2CCN(C(c3ccccc3)c3ccccc3)CC2)cc1C#N", "Potency": "active: 3.16 µM"}, {"smiles": "O=C(Cn1cccc1-c1nc(-c2ccc3c(c2)OCO3)no1)Nc1ccc(Cl)cc1", "Potency": "active: 2 µM"}, {"smiles": "Cc1ccccc1-c1cn[nH]c1C1CCN(C(=O)c2cnn3ccccc23)CC1", "Potency": "inconclusive: 3.55 µM [inhibitor, partial curve, poor fit]"}, {"smiles": "CCCCN(CC)C(=O)Cn1cc2c(n1)-c1c(oc(C(=O)N3CCCC3)c1C)CC2", "Potency": "inconclusive: 17.8 µM [inhibitor, single point]"}, {"smiles": "CC(=O)C(Sc1nc(-c2ccccc2Cl)nc2c1c(=O)n(C)c(=O)n2C)C(=O)N(C)C", "note": "(stereo not drawn)", "Potency": "inconclusive: 10 µM [inhibitor, single point]"}, {"smiles": "Cc1oc(C(O)c2ccccc2F)nc1C(=O)Nc1ccc2c(c1)NC(=O)CO2", "note": "(stereo not drawn)", "Potency": "inactive"}, {"smiles": "Cc1ccn2c(=O)c(NC(=O)c3cccc([N+](=O)[O-])c3C)c(C)nc2c1", "Potency": "inactive"}, {"smiles": "COC1CCC12CCN(C(=O)C1CCCCC1)CC2", "note": "(stereo not drawn)", "Potency": "inactive"}, {"smiles": "CCOC(=O)C1CCCN(S(=O)(=O)c2cc(Br)cc3c2N(C(=O)CC)CC3)C1", "note": "(stereo not drawn)", "Potency": "active: 3.55 µM"}]}]}
